Among all 44,000 compounds or so, about 340 (0.77%) were called active. Not shown: some 5% with an inconclusive outcome. The call rests on the fitted dose curve; in most records, active means well fitted inhibition curve with a large enough effect; inconclusive means small, poorly fitted or top-dose-only effect; inactive means flat fitted curve, though single readings scatter. The list shows a part of the results.
experiment: Acumen qHTS Assay for Inhibitors of the mTORC1 Signaling Pathway in MEF (Tsc2-/-, p53-/-) Cells: Sytravon; details: phospho-rpS6 immunofluorescence/PI, 24 h; series mostly up to 38.3 µM; activity change, negative = inhibition: at the top concentration;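 further: plate controls were DMSO for no effect and rapamycin for full effect; nearly all actives have a fitted effect of over 50% in size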
How it was run: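 Tsc2-/-, p53-/- mouse embryonic fibroblasts (empty-vector line) exposed to compound 24 hrs at 37 C, fixed, immunostained for phospho-rpS6 and counterstained with propidium iodide. Acumen laser scanning gives % positive cells from Alexa 488/PI ratio, thresholded using 7.5 nM rapamycin; PI count gives viability.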

Activity change, negative = inhibition, inactive:
COc1ccc(NC(=O)/C(C#N)=C/c2ccc(C)o2)cc1 0.322%
O=C(O)CCCC(=O)N1CCc2cc(S(=O)(=O)NCc3ccccc3)ccc21 -7.54%
Cc1cccc(NC(=O)CCNS(=O)(=O)c2ccc3c(c2)CCCC(=O)N3)c1C 2.77%
CCOC(=O)c1[nH]c2c(c1Cc1ccccc1)C(=O)CC(c1ccc(OC)cc1)C2 (configuration not stated) -7.84%
CCSc1nc2c([nH]c3ccccc32)c(=O)n1-c1ccc(OC)cc1 -6.65%
CC1CCCN(c2ncnc3c2nc2n3CCCCC2)C1 (configuration not stated) -3.34%
CN(C)c1ccc(CNc2nc(-c3ccco3)nn2S(C)(=O)=O)cc1 -8.96%
CN(C)c1ccc(NC(=O)Cn2c(SCc3ccc(F)cc3)nc3cccnc32)cc1 -3.08%
CCc1ccc(NC(=O)CSC2=Nc3ccccc3C3=NC(CC(=O)NCc4ccc5c(c4)OCO5)C(=O)N23)cc1 (configuration not stated) -5.88%
CCCC(=O)Nc1ccc(NC(=O)c2sc3ccccc3c2Cl)cc1 -14.5%
COCCn1c(SCC(=O)c2ccccc2)nc2cc(C(=O)NC3CCCC3)ccc2c1=O 4.86%
CCc1ccc2nc(N(Cc3cccnc3)C(=O)c3cccs3)sc2c1 -19.9%
CC(=O)c1cccc(NC(=O)c2noc3c2CC(C)CC3)c1 (configuration not stated) 0.176%
CCOC(=O)CSC1=Nc2ccccc2C2=NC(CCC(=O)NCc3ccccc3)C(=O)N12 (configuration not stated) 0.449%
COc1ccc(NC(=O)CN(c2cccc(C)c2C)S(=O)(=O)c2ccccc2)cc1OC 3.88%
Cc1cc2c(cc1C)C(c1cccc(OC(C)C)c1)CC(=O)N2 (configuration not stated) -12.5%
CCCCN(C)CCCNC(=O)Cn1nc(CC)n2c(cc3sc(C)cc32)c1=O -0.64%
COc1cc2c(=O)c(S(=O)(=O)c3ccc(C)cc3)cn(Cc3cccc(C)c3)c2cc1OC -0.754%
CC1CN(C(=O)N2CCC(C(=O)NCCC3=CCCCC3)CC2)c2ccccc2O1 (configuration not stated) -15.5%
CCCCNC(=O)C1CCCN(c2nnc(C)c3c(C)n(-c4ccc(Cl)cc4)nc23)C1 (configuration not stated) -10.7%
O=C(CSc1nnc(-c2cccs2)o1)Oc1ccc(Cl)cc1 1.27%
CC(C)c1ccc(S(=O)(=O)Nc2ccc(O)c(Sc3nc4ccccc4s3)c2)cc1 -10.7%
CC(=O)c1ccc(NC(=O)CSc2nccn2Cc2ccco2)cc1 -0.667%
CSc1cccc(NC(=O)C2CCN(S(=O)(=O)c3ccc4[nH]c(=O)ccc4c3)CC2)c1 -8.32%
CCN(CC)CCN(C(=O)c1ccc(C(=O)OC)cc1)c1nc2ccc(Cl)cc2s1 -7.24%
CCOC(=O)C1(C)C=C(Nc2ccc(C)cc2)C(=O)N1c1ccccc1 (configuration not stated) 1.43%
COc1cccc(C(=O)N2CCC(c3nc4ccccc4s3)CC2)c1 -10.6%
COCCNc1cc(N2CCN(C3CCCCC3)CC2)c2noc3c2c1C(=O)c1ccccc1-3 2.01%
O=C(C1COc2ccccc2O1)N(Cc1cccnc1)c1nc2c(F)cc(F)cc2s1 (configuration not stated) 1.08%
Cc1ccc(C(=O)Nc2nnc(SCc3cc(=O)c4c(C)ccc(C)c4[nH]3)s2)cc1 0%
O=C(Nc1ccc2nn(-c3ccc(F)cc3)nc2c1)c1cccc2c(Cl)cccc12 8.09%
COc1cccc(C(=O)N2CCC(N3CCN(Cc4ccc(F)cc4)C(=O)C3=O)CC2)c1 -7.46%
Cc1ccc(Cl)cc1N1CCN(C(=O)c2c(C)oc3ncnc(N4CCOCC4)c23)CC1 -3.59%
COC(=O)c1cccc(Nc2c(-c3cc(Br)ccc3O)nc3nc[nH]n23)c1 2.89%
CCOc1ccccc1NC(=O)c1c(NCc2ccc(OC)c(OC)c2OC)sc2c1CCC(C)C2 (configuration not stated) 0.1%
CCc1nnc(SCc2nc(-c3ccccc3F)oc2C)c2cc3sccc3n12 3.91%
Cc1cccc(-c2noc(-c3ccc(NC4CCCC4)c([N+](=O)[O-])c3)n2)c1 4.71%
Cc1ccc(OCC(=O)Nc2cccc(C(=O)OCc3cc(=O)n4cc(C)sc4n3)c2)cc1 0%
O=C(CC1N=C2c3ccccc3N=C(SCc3cccc(Cl)c3)N2C1=O)NC1CCCCC1 (configuration not stated) 4.73%
COc1ccc(NC(=O)CSc2nnc(-c3nnn(-c4ccc(F)cc4)c3C)o2)cc1 -4.11%
COc1cc(OC)c(NC(=O)c2nc(-c3ccncc3)no2)cc1Cl 0%
CCCCCNC(=O)C1CCC(Cn2c(=O)c3sccc3n(CC(=O)N3CCCC3)c2=O)CC1 (configuration not stated) 9.48%
CCOCN(C(=O)Cn1c(C)nc2ccccc21)c1c(C)cccc1CC -12.3%
Cn1c(=NC(=O)c2ccc(F)cc2)sc2cc(Br)ccc21 0.695%
Cc1ccc(Cl)cc1-n1c(=O)cc(N2CCN(c3ccccc3)CC2)[nH]c1=O 0.472%
Cc1cc2n(n1)CCCN2C(=O)Nc1ccccc1F 3.69%
CCc1ccccc1NC(=O)CC(C)n1nc(C)cc1C (configuration not stated) -1.9%
Cc1ccc(N2C(=O)c3n[nH]c(C)c3C2c2ccc(C(C)C)cc2)cc1 (configuration not stated) 0.335%
CCOC(=O)c1c(S(=O)(=O)N2CCN(c3ccccc3OC)CC2)c(C)n(C)c1C -5.79%
COc1cc(OC)c(NC(=O)NCc2ccc3c(c2)CCN3C(C)=O)cc1Cl -10.8%
CC(=O)c1cccc(NC(=O)c2sc3nc4c(cc3c2N)CCCC4)c1 -9.35%
O=c1c2cc3c(cc2n(Cc2cccc(F)c2)c(=O)n1Cc1nc(-c2ccccc2)no1)OCO3 1.33%
Cc1ccc(Cl)cc1NC(=O)c1cccc(NC(=O)N2CCSc3ncccc32)c1 -5.16%
CCOc1ccc(NC(=O)C2CCCN(c3nnc(-n4c(C)ccc4C)s3)C2)cc1 (configuration not stated) -0.622%
CCc1ccc(NCc2cc3ccc(OC)cc3n(CC(=O)Nc3cccc(Cl)c3C)c2=O)cc1 -6.12%
COCCN1C(=O)c2[nH]nc(-c3c(C)cc(C)cc3O)c2C1c1cccc(O)c1 (configuration not stated) -4.15%
COc1ccc(S(=O)(=O)N(CCc2ccccc2)CC(=O)NCc2ccccc2)cc1OC 13.4%
Cc1cccn2c(=O)c(C(=O)NCCc3ccc(Cl)cc3)cnc12 -0.51%
CC(=O)c1ccc(NC(=O)C2CCC(CNS(=O)(=O)c3cccc4nsnc34)CC2)cc1 (configuration not stated) -3.71%
CC(C)(C)OC(=O)N1CCC(c2c(C(=O)N3CCN(C(=O)c4ccco4)CC3)cnn2-c2ccc(Cl)cc2)CC1 -9.91%
CCc1ccccc1N1C(=O)N(Cc2cccc(Cl)c2)c2ccccc2S1(=O)=O -5.32%
Cc1ccc(C(=O)NCc2nnnn2-c2ccc(C)c(C)c2)cc1 -22.1%

Source: PubChem BioAssay AID493208 (National Center for Advancing Translational Sciences (NCATS), 2011)
